The whole screen tested about 360,000 compounds, of which about 25,000 (6.9%) were called active. The inconclusive results got no clear call from the source; some entries with a clear call stand among them for comparison. The call rests on the fitted dose curve; in most records, active means well fitted inhibition curve with a large enough effect; inconclusive means small, poorly fitted or top-dose-only effect; inactive means flat fitted curve, though single readings scatter. A potency beside an inconclusive call is a rough fit, not a confirmed value.
These compounds were tested against Luciferin 4-monooxygenase (Photinus pyralis) (UniProt P08659) (assay: qHTS profiling assay for firefly luciferase inhibitor/activator using purifed enzyme and Km concentrations of substrates (counterscreen for miR-21 project)). Details: purified FLuc, luminescence inhibition; series mostly up to 57.5 µM; activity change, negative = inhibition: at the top concentration.
Outline: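 Biochemical qHTS of compounds, final roughly 60 µM downward over six points, against 10 nM purified firefly luciferase using Km concentrations of substrates (10 uM D-luciferin, 10 uM ATP) in Tris acetate pH 7.5 buffer; luminescence output.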
Further: nearly all actives have a fitted effect of over 55% in size.
Potency means the concentration at half of the fitted maximal effect; tags describe the fitted curve by direction and shape.
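Wherever activity change, negative = inhibition is given: plate controls were vehicle for no effect and reference inhibitor for full effect.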

Chain of UniProt P08659 (P08659 whole entry, looked up): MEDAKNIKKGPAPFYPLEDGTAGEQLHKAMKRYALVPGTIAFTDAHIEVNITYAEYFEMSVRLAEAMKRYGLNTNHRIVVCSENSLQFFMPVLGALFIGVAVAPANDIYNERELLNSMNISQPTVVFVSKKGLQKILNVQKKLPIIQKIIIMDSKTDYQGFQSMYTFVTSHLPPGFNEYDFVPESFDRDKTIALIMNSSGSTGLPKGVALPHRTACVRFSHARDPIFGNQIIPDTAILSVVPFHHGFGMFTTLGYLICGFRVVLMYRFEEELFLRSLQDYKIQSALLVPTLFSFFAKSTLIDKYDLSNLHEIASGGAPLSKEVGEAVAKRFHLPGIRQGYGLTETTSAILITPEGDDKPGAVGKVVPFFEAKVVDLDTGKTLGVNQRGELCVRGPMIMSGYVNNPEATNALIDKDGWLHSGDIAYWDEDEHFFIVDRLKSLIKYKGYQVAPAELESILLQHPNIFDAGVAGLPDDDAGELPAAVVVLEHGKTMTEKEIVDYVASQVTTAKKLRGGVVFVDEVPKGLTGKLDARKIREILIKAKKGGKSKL

SMILES	Potency	activity change, negative = inhibition
Cc1ccc(C(=O)Nc2c[nH]c(=O)[nH]c2=O)cc1	inconclusive: 21.3 µM [inhibitor, single point]	
O=C(NCCO)c1cccc(Cl)c1		inactive: 4.41%
Cc1ccc(N=C2c3ccccc3C(=O)C2[N+](=O)[O-])cc1C (configuration not stated)	inconclusive: 37.9 µM [inhibitor, single point]	
CCc1ccc(C(=O)CN(C#N)c2nc(C)cc(C)n2)cc1	inconclusive: 15.1 µM [inhibitor, partial curve, poor fit]	
COc1ccc(-c2ccc(C(=S)N3CCN(C(C)=O)CC3)o2)cc1	inconclusive: 33.8 µM [inhibitor, single point]	
COc1ccccc1N1CCN(C(CNS(=O)(=O)c2ccccc2)c2ccccc2)CC1 (configuration not stated)		inactive: 1.84%
CCOC(=O)N1CCc2c(sc3c2C(=O)NC(c2cc(OC)c(O)c(OC)c2)N3)C1 (configuration not stated)	inconclusive: 16.9 µM [inhibitor, partial curve]	
COCCCN1CN=C(Nc2nc3ccccc3o2)NC1	inconclusive: 26.9 µM [inhibitor, partial curve, poor fit]	
O=c1c2cn(Cc3ccccc3)c3ccccc3c-2nn1Cc1ccc(F)cc1Cl		inactive: 1.97%
CCCc1ccc(C(=O)O/N=C(\N)c2ccccn2)cc1	active: 0.0675 µM	
Cc1ccc(C(C(=O)NC2CCCCC2)N(C(=O)c2csnn2)C2CC2)cc1 (configuration not stated)	inconclusive: 37.9 µM [inhibitor, partial curve, poor fit]	
Cc1cc(C)n(-c2nc3ccccc3nc2N2CCN(c3cccc(C)c3C)CC2)n1		inactive: -0.175%
O=[N+]([O-])c1cc(F)c2cccnc2c1O		inactive: -2.28%
COc1ccc(C(=O)N[C@H](C(=O)OCC(=O)NC(=O)c2cccn2C)C(C)C)cc1	inconclusive: 37.9 µM [inhibitor, partial curve, poor fit]	
Cc1ccc2nc(-c3ccc4c(c3)NC(=O)CO4)cn2c1	active: 0.849 µM	
Cc1oc(-c2cccc(Cl)c2)nc1CN1CCCC(C(=O)N2CCN(c3ccc(F)cc3)CC2)C1 (configuration not stated)	inconclusive: 9.53 µM [inhibitor, partial curve, poor fit]	
Cc1cccc(Cn2c(C)c(CNC3CCCCCC3)c(C(=O)O)c2C)c1		inactive: -1.73%
O=C(Nc1ccc2nc3n(c(=O)c2c1)CCCCC3)c1ccccn1	active: 7.57 µM	
CC1(C)CC(=O)C2=C(C1)N(c1cccc(O)c1)C1=C(C2)C(=O)CC(C)(C)C1	inconclusive: 37.9 µM [inhibitor, single point]	
COc1ccc(NC(=O)CN(C)C(=O)CCCc2nc3ccccc3s2)cc1	inconclusive: 19 µM [inhibitor, partial curve]	
CCN(CC)S(=O)(=O)c1ccc(-c2cn3cc(Cl)ccc3n2)cc1	inconclusive: 8.49 µM [inhibitor, full curve]	
COCC(C)n1c(C)cc(C(=O)CSc2cc(C)c3ccccc3n2)c1C (configuration not stated)	inconclusive: 37.9 µM [inhibitor, single point]	
Cc1cc(S(=O)(=O)N2CCN(c3ccccc3F)CC2)ccc1-n1cnnn1		inactive: 1.26%
O=C(COc1ccccc1/C=C1\SC(=O)NC1=O)Nc1ccccc1	inconclusive: 23.9 µM [inhibitor, partial curve]	

SMILES	Potency	activity change, negative = inhibition
CCCCCC(=O)Nc1ccc(NC(=O)c2cc3ccccc3o2)c(OC)c1	inconclusive: 26.9 µM [inhibitor, partial curve, poor fit]	
CCC(NC(=O)c1ccccc1NC(=O)c1ccccc1)C(=O)O (configuration not stated)		inactive: -17.1%
Cc1ccsc1/C=C1/SC(N2CCOCC2)=NC1=O	active: 21.3 µM	
O=C(c1cc(-c2ccc3c(c2)OCO3)on1)N1CCN(c2ccccc2)CC1	active: 3.79 µM	
O=C1NC(c2cccs2)Nc2sc3c(c21)CCCC3 (configuration not stated)	active: 6.75 µM	
N/C(=N/O)c1nc(N2CCCC2)nc(N2CCCC2)n1	inconclusive: 26.9 µM [inhibitor, partial curve, poor fit]	
CCC(=O)Nc1cccc(C(=O)Nc2nccs2)c1	inconclusive: 23.9 µM [inhibitor, partial curve, poor fit]	
COc1ccc(NC(=O)CN(c2ccccc2)S(=O)(=O)N(C)C)cc1Cl		inactive: 0.775%
N#Cc1ccc(CSc2nnc(NC(=O)c3ccc4ncsc4c3)s2)cc1	inconclusive: 23.9 µM [inhibitor, single point]	
O=C(c1cncc(Br)c1)N1CCc2ccccc2C1		inactive: -1.06%
COc1ccc2nc(NC(=O)CSc3nnc(C)n3N)sc2c1	active: 3.01 µM	
O=C(CSCc1ccccc1)Nc1ccc(F)c(F)c1	active: 16.9 µM	
CCc1ccc(C(=O)CN2C(=O)NC3(CCc4ccccc43)C2=O)cc1 (configuration not stated)	inconclusive: 16.9 µM [inhibitor, partial curve]	
CC(C)(C)C(=O)NC(=S)Nc1ccccc1F	inconclusive: 37.9 µM [inhibitor, partial curve, poor fit]	
Cc1ccc(C(=O)O/N=C(\N)c2ccccn2)c(C)c1	active: 0.0213 µM	
CCOC(=O)C1=C(COC(=O)CNC(=O)c2ccc(C(C)(C)C)cc2)NC(=O)NC1C (configuration not stated)	inconclusive: 26.9 µM [inhibitor, single point]	
Nc1nc(SCc2nc3sc4c(c3c(=O)[nH]2)CCCC4)n[nH]1	inconclusive: 33.8 µM [inhibitor, partial curve, poor fit]	
CN(C)CCCCOc1ccc(Br)cc1Cl		inactive: 0.578%
Cc1oc2c(O)c(O)ccc2c(=O)c1-c1cnn(-c2ccccc2)c1	inconclusive: 15.1 µM [inhibitor, partial curve, poor fit]	
N#C/C(=C\c1cccc(O)c1)C(=O)Nc1ccc2c(c1)OCCO2	active: 0.478 µM	
O=[N+]([O-])c1cc2c(cc1CN1CCN(c3ccccc3)CC1)OCO2	inconclusive: 37.9 µM [inhibitor, partial curve, poor fit]	
CCOC(=O)c1ccc(N=Nc2c(C)[nH]n(-c3ccccc3)c2=O)cc1	inconclusive: 10.7 µM [inhibitor, partial curve, poor fit]	
Cn1c(=NC(=O)C2CC2)sc2cc(F)cc(F)c21	inconclusive: 23.9 µM [inhibitor, single point]	

From PubChem BioAssay AID588342 (National Center for Advancing Translational Sciences (NCATS), 2011)
